# From PubChem BioAssay AID686979 (National Center for Advancing Translational Sciences (NCATS), 2013)
# The whole screen tested about 420,000 compounds, of which about 50,000 (12%) were called active. Inconclusive results, whose numbers are uncertain, are shown with a selection of clear calls. The call rests on the fitted dose curve; in most records, active means well fitted inhibition curve with a large enough effect; inconclusive means small, poorly fitted or top-dose-only effect; inactive means flat fitted curve, though single readings scatter. Potencies of inconclusive entries are left out as doubtful fits.
# Assay: qHTS for Inhibitors of human tyrosyl-DNA phosphodiesterase 1 (TDP1): qHTS in cells in presence of CPT; further: nearly all actives have a fitted effect of over 55% in size
# Conditions: chicken DT40 Tdp1-/-;hTDP1 cells + 20 nM CPT, ATP luminescence, 48 h; activity change, negative = growth inhibition: at 46.2 µM (top of the series) unless noted
# Method in brief: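 Chicken DT40 Tdp1-/- cells complemented with human TDP1, 400 cells/well, exposed to compounds plus 20 nM camptothecin for at least 48 h at 37 C; viability read as ATP content by CellTiter-Glo luminescence.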
# On the % scale 0 is the no-effect control and ±100 the full control effect; potency means the concentration at half of the fitted maximal effect; tags describe the fitted curve by direction and shape.
SMILES,Potency,"activity change, negative = growth inhibition"
CCC1CCC(C(=O)NNC(=O)c2cc(-c3ccco3)[nH]n2)CC1 (centres undefined),"inconclusive [inhibitor, single point]",–
COc1ccc(Br)c2c1-c1nc(NC(=O)c3ccc(F)cc3)sc1C2,"inconclusive [inhibitor, single point]",–
COc1ccc(CCN2C(=O)C=CC2=O)cc1OC,active: 0.82 µM,–
Cc1ccc(NC(=O)C2COc3ccccc3O2)nc1 (centres undefined),"inconclusive [inhibitor, partial curve]",–
O=C(CCCOc1ccc(Cl)cc1Cl)Nc1cccnc1,"inconclusive [inhibitor, single point]",–
Cc1cccc(Nc2ncnc3onc(-c4cccc(Cl)c4)c23)c1,active: 20.6 µM,–
CCOC(=O)C1CCCN(C(=O)/C=C/c2ccccc2[N+](=O)[O-])C1 (centres undefined),–,inactive: -5.5%
Cc1ccc(N(CC(=O)NCC2CCCO2)C(=O)CNS(=O)(=O)c2ccc(Cl)cc2)cc1 (centres undefined),–,inactive: -2.58%
Cc1c(C(=O)NCc2ccccc2Cl)sc2nc3n(c(=O)c12)CCCC3,"inconclusive [inhibitor, single point]",–
CCOc1ccccc1CNC(=O)C(CC)n1nc(C)c2c(C)n(-c3ccccc3)nc2c1=O (centres undefined),active: 18.4 µM,–
Cc1cc2c(c(-c3cnccn3)c1)OC(CNC(=O)c1ccccc1C(F)(F)F)C2 (centres undefined),–,inactive: -2.74%
COc1cc(CNc2ncnc3c2ncn3[C@H]2CN(Cc3ccco3)C[C@@H](CO)O2)cc(OC)c1OC,–,inactive: 2.12%
COc1ccc2cc(CN(Cc3cccnc3)S(=O)(=O)c3ccccc3)c(=O)[nH]c2c1,"inconclusive [inhibitor, single point]",–
OC(c1cccc(Cl)c1)c1nc(-c2ccccc2)cs1 (centres undefined),"inconclusive [inhibitor, single point]",–
c1ccc(-c2cc(-c3ccccc3)n3ncnc3n2)cc1,"inconclusive [inhibitor, single point]",–
O=C(Nc1ccccc1)ON=C1c2ccccc2-c2ccccc21,"inconclusive [inhibitor, single point]",–
O=C(Nc1ccc(Cl)cc1)c1ccc2oc(=O)n(Cc3ccccc3)c2c1,"inconclusive [inhibitor, single point]",–
O=C(COC(=O)c1cc(S(=O)(=O)N2CCCCC2)ccc1N1CCOCC1)c1ccccc1,"inconclusive [inhibitor, single point]",–
COCCCNc1nc2c(c(=O)n(Cc3ccccc3)c(=O)n2C)n1C,–,inactive: 6.65%
CN(CC(=O)Nc1ccccc1N1CCCC1)S(=O)(=O)c1ccc(F)cc1,"inconclusive [inhibitor, single point]",–
Cc1ccc(OCc2ccc(C(=O)Nc3ccc(C(N)=O)cc3)o2)c([N+](=O)[O-])c1,"inconclusive [inhibitor, partial curve]",–
Cc1cc2c(cc1C)-c1c(ssc1=Nc1ccc(S(N)(=O)=O)cc1)C(C)(C)N2,"inconclusive [inhibitor, single point]",–

SMILES,Potency,"activity change, negative = growth inhibition"
CC(C)n1cnc2c(NCc3ccccc3)nc(NCc3ccccc3)nc21,"inconclusive [inhibitor, single point]",–
O=[N+]([O-])c1ccc(N2CCc3ccccc3C2)cc1,"inconclusive [inhibitor, single point]",–
C[C@@H]1[C@H]2[C@@H](O[C@@H]3O[C@H](CO)[C@@H](O)[C@H](O)[C@H]3O)OC=C(C(=O)O)[C@H]2C[C@@H]1O,active: 7.31 µM,–
COc1ccc(C(=O)CN2CCN(S(=O)(=O)c3ccc(F)cc3)CC2)cc1,"inconclusive [inhibitor, partial curve]",–
Cc1cccc(-n2c(=O)[nH]c3c(C(N)=O)nc(C(C)C)nc32)c1,"inconclusive [inhibitor, partial curve, poor fit]",–
COc1ccc(C(=O)Nc2ccc(Nc3ccccc3)cc2)cc1OC,–,inactive: -4.66%
COc1cc(SC)ccc1C(=O)Nc1ccncc1,active: 16.4 µM,–
CCOC(=O)C1CN(C(=O)OCC)CC1=NNC(N)=O (centres undefined),–,inactive: -8.28%
CN(C)S(=O)(=O)NCC1CCCN(Cc2ccc(-c3ccccc3)cc2)C1 (centres undefined),"inconclusive [inhibitor, single point]",–
Nc1ncnn1Cc1ccccc1,–,inactive: 9%
Cc1cc(NC(=O)c2ccc(F)cc2)ccc1-c1cc2ccccc2oc1=O,"inconclusive [inhibitor, single point]",–
CC(=O)N/C(=N/c1nc(C)cc(C)n1)Nc1ccc(C)cc1C,"inconclusive [inhibitor, partial curve]",–
CC(=O)OC1=C(C(C)=O)N(Cc2ccccc2)S(=O)(=O)c2ccccc21,"inconclusive [inhibitor, single point]",–
CC(OC(=O)c1ccc(S(=O)(=O)NCc2ccco2)cc1)C(=O)Nc1ncc(Cl)cc1Cl (centres undefined),–,inconclusive: -33.4% [inhibitor]
CCNc1ccc(Br)cc(C(=O)/C=C/c2ccc(Cl)cc2Cl)c1=O,active: 10.3 µM,–
CCN(C(=O)CN1C(=O)S/C(=C\c2cccc(Cl)c2)C1=O)C1CCS(=O)(=O)C1 (centres undefined),–,inactive: -13.5%
Cc1cccc(OCCCC(=O)Nc2ccc(N(C)C)cc2)c1,"inconclusive [inhibitor, partial curve]",–
COc1ncnc2c1ncn2CCCNC1CCN(Cc2ccccc2)CC1,–,inactive: 6.26%
O=C(c1cc(-c2ccc(Br)cc2)n[nH]1)N1CCN(S(=O)(=O)c2ccc(Br)s2)CC1,active: 20.6 µM,–
Cc1c(C(=O)N2CCC(C)(C(=O)NS(=O)(=O)C3CC3)C2)oc2ccccc12 (centres undefined),"inconclusive [inhibitor, partial curve, poor fit]",–
O=C(CN1CCc2ccccc2C1)Nc1cc(S(=O)(=O)N2CCOCC2)ccc1N1CCOCC1,active: 9.2 µM,–
CCOC1=C2CN(S(=O)(=O)c3ccc(C)cc3)[C@H](c3ccc(CC)cc3)C[C@@H]2N(S(=O)(=O)c2ccc(C)cc2)[C@H](c2ccccc2)C1,"inconclusive [inhibitor, partial curve]",–
